From the RNAGym collection of RNA variant scans (doi:10.1093/nar/gkz1192)
The source gives no read counts; variants with many changes may rest on few reads.

B1: CPEB3 Ribozyme (parent)
chain: UAACAGGGGGCCACAGCAGAAGCGUUCACGUCGCAGCCCCUGUCAGAUUCUGGUGAAUCUGCGAAUUCUGCUGUAUAUCUC

Variants of: B1
Test: self-cleavage, relative activity (ratio to wild type); higher = more cleavage; in vitro, sequencing
Summary of the method: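 CPEB3 self-cleaving ribozyme mutant libraries were made by rounds of error-prone PCR, barcoded, and transcribed in vitro with T7 RNA polymerase for 5 hours at 37°C. Cleavage occurred during transcription and a 15 min DNase I step before EDTA stop. RNAs were reverse transcribed with template switching and Illumina-sequenced, with DNA sequencing mapping barcodes to variants. Relative activity is the variant's cleaved/total read fraction divided by wild type's (minimum 5 reads), averaged across three batches.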

Row | Variant | self-cleavage
1 | G6A A56G A64G | 0.28
2 | G6A A56G G61A U72A | 0.08
3 | G6A A56G U72G | 0.06
4 | G6A A56G U74G | 0.7
5 | G6A A64G A65G U76A U80C | 0.05
6 | G6A A64G U78A | 0.43
7 | G6A C11A A15G A20G U31A C38U | 0.04
8 | G6A C11A A15G U69C U72A | 0.07
9 | G6A C11G U31A A45G U58C U66C U72G | 0.07
10 | G6A C11G U58C A64G G73A U78A | 0.81
11 | G6A C11U A15G A20G A28G | 0.07
12 | G6A C11U A15U U43C A57G U69C U76A | 0.05
13 | G6A C11U U25G U54C | 0.05
14 | G6A C12A A20U U51A A75G | 0.16
15 | G6A C12A U67C | 0.2
16 | G6A C12U A13G C23U U49A A77U U78A | 0.04
17 | G6A C12U A28G A77U | 0.09
18 | G6A C12U U60C U72A | 0.17
19 | G6A C14G A18G A75U | 0.37
20 | G6A C14U U26A A47G U60C | 0.11
21 | G6A C17G G30U U49C A56G | 0.07

Row | Variant | self-cleavage
22 | G6A C17U A18U | 0.46
23 | G6A C17U U60C C71A | 0.06
24 | G6A C23G C40A U60C | 0.13
25 | G6A C29G U48C U51C U54G | 0.07
26 | G6A C32A U51A U76C U80C | 0.19
27 | G6A C32A U72C | 0.3
28 | G6A C32U A35U A45G U72A U80C | 0.05
29 | G6A C32U C34U A77U | 0.24
30 | G6A C34U A64U | 0.19
31 | G6A C37U G52C U58C U72C | 0.25
32 | G6A C39U A57U U66A | 0.21
33 | G6A C40U A64G U66C | 0.08
34 | G6A C44A U60A A65G | 0.14
35 | G6A C62U U67C | 0.11
36 | G6A G7A A18G A28G A57G | 0.07
37 | G6A G7A A20C G24A A65G U72A | 0.05
38 | G6A G7A A20G C23U A35G A47U U67C | 0.07
39 | G6A G7U G8A A13U U41A U72C | 0.07
40 | G6A G8U A13G A35G U74C U80C | 0.05
41 | G6A G8U C12U C40A C50U U76G | 0.04
42 | G6A G8U C40U U49A | 0.06

Row | Variant | self-cleavage
43 | G6A G9A A13U C34G U66C | 0.06
44 | G6A G9A A18G A45G U54C A64G A75U | 0
45 | G6A G9A A45G U78C | 0.05
46 | G6A G9A C29U A56U A65G U66A U78C | 0.05
47 | G6A G9A G10C U31C U54A | 0.07
48 | G6A G9A U31A U43A A45C U51C A64G | 0.04
49 | G6A G9A U41A | 0.34
50 | G6A G9A U43G A75G | 0.04
51 | G6A G9C A18G U26G U43C U69C | 0.04
52 | G6A G9C C40U C44U A47G U48C U67C | 0.05
53 | G6A G9U A15G | 0.46
54 | G6A G9U A15G G33U U49C U54C U60G | 0.06
55 | G6A G9U C29U | 0.29
56 | G6A G10A A18U U26C U48A | 0.06
57 | G6A G10A A21G A28C U31C U69C U72C | 0.06
58 | G6A G10A A35G | 0.65
59 | G6A G10A A57G U58A | 0.17
60 | G6A G10A C23A A64G U69A U72C U80C | 0.04
61 | G6A G10A C23G | 0.08
62 | G6A G10A G19A G46A U51G U74C | 0.04
63 | G6A G10A G24A A45G | 0.06

Row | Variant | self-cleavage
64 | G6A G10C A15G A18U A56U U69C | 0.05
65 | G6A G16A A45U | 0.17
66 | G6A G16A A45U A57U | 0.2
67 | G6A G16C U51A U54A U80C | 0.08
68 | G6A G16U A18U A21G U51C A77C | 0.04
69 | G6A G16U U25C C34A U43C U69A | 0.04
70 | G6A G16U U69C U76C | 0.09
71 | G6A G22C A45U G55C A56G A75G U80C | 0.04
72 | G6A G24A C27A U49C | 0.25
73 | G6A G24A G46A A57G U74A | 0.13
74 | G6A G24U A56G | 0.12
75 | G6A G30U A45C U51A U60C | 0.13
76 | G6A G33A A75U | 0.29
77 | G6A G33C G55U C62G U72C A75G U80C | 0.03
78 | G6A G33U A57U U67A | 0.07
79 | G6A G36C A45U | 0.28
80 | G6A G36C A57G U74A | 0.05
81 | G6A G36C U41A A45G G55A U69C | 0.18
82 | G6A G46A A56U U67A | 0.07
83 | G6A G53C U60A | 0.21
84 | G6A U25A A28U U31A U43C | 0.23
